Experimental findings from patent US20250250343A1 (UNITY BIOTECHNOLOGY, published 2025) are described below.

First the molecules themselves.
B1: #16 (bispecific antibody, human IgG1, kappa, L234A L235A)
heavy chain: DVQLVESGGGVVRPGESLRLSCTASGFTFDSYGMSWVRQAPGKGLEWVSSINVGDNTYYADSVRGRFIISRDSSRNTLYLQMNSLTAEDTAVYYCANWNSFFDYWGLGTLVTVSSASTKGPSVFPLAPSSKSTSGGTAALGCLVKDYFPEPVTVSWNSGALTSGVHTFPAVLQSSGLYSLSSVVTVPSSSLGTQTYICNVNHKPSNTKVDKKVEPKSCDKTHTCPPCPAPEAAGGPSVFLFPPKPKDTLMISRTPEVTCVVVDVSHEDPEVKFNWYVDGVEVHNAKTKPREEQYNSTYRVVSVLTVLHQDWLNGKEYKCKVSNKALGAPIEKTISKAKGQPREPQVYTLPPSREEMTKNQVSLTCLVKGFYPSDIAVEWESNGQPENNYKTTPPVLDSDGSFFLYSKLTVDKSRWQQGNVFSCSVMHEALHNHYTQKSLSLSPGKGGGGSGGGGSGGGGSGGGGSDIQLTQSPSSLSASVGDRVTITCSASQDISNYLNWYQQKPGKAPKVLIYFTSSLHSGVPSRFSGSGSGTDFTLTISSLQPEDFATYYCQQYSTVPWTFGQGTKVEIKRTVAAPSVFIFPPSDEQLKSGTASVVCLLNNFYPREAKVQWKVDNALQSGNSQESVTEQDSKDSTYSLSSTLTLSKADYEKHKVYACEVTHQGLSSPVTKSFNRGECGGGGSGGGGSGGGGSGGGGSGGGGSEVQLVESGGGLVQPGGSLRLSCAASGYDFTHYGMNWVRQAPGKGLEWVGWINTYTGEPTYAADFKRRFTFSLDTSKSTAYLQMNSLRAEDTAVYYCAKYPYYYGTSHWYFDVWGQGTLVTVSSASTKGPSVFPLAPSSKSTSGGTAALGCLVKDYFPEPVTVSWNSGALTSGVHTFPAVLQSSGLYSLSSVVTVPSSSLGTQTYICNVNHKPSNTKVDKKVEPKSCDKTHL
light chain (kappa): EIVLTQSPGTLSLSPGEIATLSCRASQNVRSDLAWYQQKPGQAPRLLIYDASNRATGIPDRFSGSGSGTDFTLTISSLQSEDFAVYYCQQYSNWPPLTFGGGTKVEIKRTVAAPSVFIFPPSDEQLKSGTASVVCLLNNFYPREAKVQWKVDNALQSGNSQESVTEQDSKDSTYSLSSTLTLSKADYEKHKVYACEVTHQGLSSPVTKSFNRGEC
B2: #20 (bispecific antibody, human IgG1, kappa, L234A L235A)
heavy chain: DVQLVESGGGVVRPGESLRLSCTASGFTFDSYGMSWVRQAPGKGLEWVSSINVGDNTYYADSVRGRFIISRDSSRNTLYLQMNSLTAEDTAVYYCANWNSFFDYWGLGTLVTVSSASTKGPSVFPLAPSSKSTSGGTAALGCLVKDYFPEPVTVSWNSGALTSGVHTFPAVLQSSGLYSLSSVVTVPSSSLGTQTYICNVNHKPSNTKVDKKVEPKSCDKTHTCPPCPAPEAAGGPSVFLFPPKPKDTLMISRTPEVTCVVVDVSHEDPEVKFNWYVDGVEVHNAKTKPREEQYNSTYRVVSVLTVLHQDWLNGKEYKCKVSNKALGAPIEKTISKAKGQPREPQVYTLPPSREEMTKNQVSLTCLVKGFYPSDIAVEWESNGQPENNYKTTPPVLDSDGSFFLYSKLTVDKSRWQQGNVFSCSVMHEALHNHYTQKSLSLSPGKGGGGSGGGGSGGGGSGGGGSGGGGSDIQLTQSPSSLSASVGDRVTITCSASQDISNYLNWYQQKPGKAPKVLIYFTSSLHSGVPSRFSGSGSGTDFTLTISSLQPEDFATYYCQQYSTVPWTFGQGTKVEIKRTVAAPSVFIFPPSDEQLKSGTASVVCLLNNFYPREAKVQWKVDNALQSGNSQESVTEQDSKDSTYSLSSTLTLSKADYEKHKVYACEVTHQGLSSPVTKSFNRGECGGGGSGGGGSGGGGSGGGGSGGGGSGGGGSGGGGSGGGGSGGGGSGGGGSEVQLVESGGGLVQPGGSLRLSCAASGYDFTHYGMNWVRQAPGKGLEWVGWINTYTGEPTYAADFKRRFTFSLDTSKSTAYLQMNSLRAEDTAVYYCAKYPYYYGTSHWYFDVWGQGTLVTVSSASTKGPSVFPLAPSSKSTSGGTAALGCLVKDYFPEPVTVSWNSGALTSGVHTFPAVLQSSGLYSLSSVVTVPSSSLGTQTYICNVNHKPSNTKVDKKVEPKSCDKTHL
light chain (kappa): EIVLTQSPGTLSLSPGEIATLSCRASQNVRSDLAWYQQKPGQAPRLLIYDASNRATGIPDRFSGSGSGTDFTLTISSLQSEDFAVYYCQQYSNWPPLTFGGGTKVEIKRTVAAPSVFIFPPSDEQLKSGTASVVCLLNNFYPREAKVQWKVDNALQSGNSQESVTEQDSKDSTYSLSSTLTLSKADYEKHKVYACEVTHQGLSSPVTKSFNRGEC
B3: #17 (bispecific antibody, human IgG1, kappa, L234A L235A)
heavy chain: DVQLVESGGGVVRPGESLRLSCTASGFTFDSYGMSWVRQAPGKGLEWVSSINVGDNTYYADSVRGRFIISRDSSRNTLYLQMNSLTAEDTAVYYCANWNSFFDYWGLGTLVTVSSASTKGPSVFPLAPSSKSTSGGTAALGCLVKDYFPEPVTVSWNSGALTSGVHTFPAVLQSSGLYSLSSVVTVPSSSLGTQTYICNVNHKPSNTKVDKKVEPKSCDKTHTCPPCPAPEAAGGPSVFLFPPKPKDTLMISRTPEVTCVVVDVSHEDPEVKFNWYVDGVEVHNAKTKPREEQYNSTYRVVSVLTVLHQDWLNGKEYKCKVSNKALGAPIEKTISKAKGQPREPQVYTLPPSREEMTKNQVSLTCLVKGFYPSDIAVEWESNGQPENNYKTTPPVLDSDGSFFLYSKLTVDKSRWQQGNVFSCSVMHEALHNHYTQKSLSLSPGKGGGGSGGGGSGGGGSGGGGSDIQLTQSPSSLSASVGDRVTITCSASQDISNYLNWYQQKPGKAPKVLIYFTSSLHSGVPSRFSGSGSGTDFTLTISSLQPEDFATYYCQQYSTVPWTFGQGTKVEIKRTVAAPSVFIFPPSDEQLKSGTASVVCLLNNFYPREAKVQWKVDNALQSGNSQESVTEQDSKDSTYSLSSTLTLSKADYEKHKVYACEVTHQGLSSPVTKSFNRGECGGGGSGGGGSGGGGSGGGGSGGGGSGGGGSEVQLVESGGGLVQPGGSLRLSCAASGYDFTHYGMNWVRQAPGKGLEWVGWINTYTGEPTYAADFKRRFTFSLDTSKSTAYLQMNSLRAEDTAVYYCAKYPYYYGTSHWYFDVWGQGTLVTVSSASTKGPSVFPLAPSSKSTSGGTAALGCLVKDYFPEPVTVSWNSGALTSGVHTFPAVLQSSGLYSLSSVVTVPSSSLGTQTYICNVNHKPSNTKVDKKVEPKSCDKTHL
light chain (kappa): EIVLTQSPGTLSLSPGEIATLSCRASQNVRSDLAWYQQKPGQAPRLLIYDASNRATGIPDRFSGSGSGTDFTLTISSLQSEDFAVYYCQQYSNWPPLTFGGGTKVEIKRTVAAPSVFIFPPSDEQLKSGTASVVCLLNNFYPREAKVQWKVDNALQSGNSQESVTEQDSKDSTYSLSSTLTLSKADYEKHKVYACEVTHQGLSSPVTKSFNRGEC
B4: #18 (bispecific antibody, human IgG1, kappa, L234A L235A)
heavy chain: DVQLVESGGGVVRPGESLRLSCTASGFTFDSYGMSWVRQAPGKGLEWVSSINVGDNTYYADSVRGRFIISRDSSRNTLYLQMNSLTAEDTAVYYCANWNSFFDYWGLGTLVTVSSASTKGPSVFPLAPSSKSTSGGTAALGCLVKDYFPEPVTVSWNSGALTSGVHTFPAVLQSSGLYSLSSVVTVPSSSLGTQTYICNVNHKPSNTKVDKKVEPKSCDKTHTCPPCPAPEAAGGPSVFLFPPKPKDTLMISRTPEVTCVVVDVSHEDPEVKFNWYVDGVEVHNAKTKPREEQYNSTYRVVSVLTVLHQDWLNGKEYKCKVSNKALGAPIEKTISKAKGQPREPQVYTLPPSREEMTKNQVSLTCLVKGFYPSDIAVEWESNGQPENNYKTTPPVLDSDGSFFLYSKLTVDKSRWQQGNVFSCSVMHEALHNHYTQKSLSLSPGKGGGGSGGGGSGGGGSGGGGSDIQLTQSPSSLSASVGDRVTITCSASQDISNYLNWYQQKPGKAPKVLIYFTSSLHSGVPSRFSGSGSGTDFTLTISSLQPEDFATYYCQQYSTVPWTFGQGTKVEIKRTVAAPSVFIFPPSDEQLKSGTASVVCLLNNFYPREAKVQWKVDNALQSGNSQESVTEQDSKDSTYSLSSTLTLSKADYEKHKVYACEVTHQGLSSPVTKSFNRGECGGGGSGGGGSGGGGSGGGGSGGGGSGGGGSGGGGSEVQLVESGGGLVQPGGSLRLSCAASGYDFTHYGMNWVRQAPGKGLEWVGWINTYTGEPTYAADFKRRFTFSLDTSKSTAYLQMNSLRAEDTAVYYCAKYPYYYGTSHWYFDVWGQGTLVTVSSASTKGPSVFPLAPSSKSTSGGTAALGCLVKDYFPEPVTVSWNSGALTSGVHTFPAVLQSSGLYSLSSVVTVPSSSLGTQTYICNVNHKPSNTKVDKKVEPKSCDKTHL
light chain (kappa): EIVLTQSPGTLSLSPGEIATLSCRASQNVRSDLAWYQQKPGQAPRLLIYDASNRATGIPDRFSGSGSGTDFTLTISSLQSEDFAVYYCQQYSNWPPLTFGGGTKVEIKRTVAAPSVFIFPPSDEQLKSGTASVVCLLNNFYPREAKVQWKVDNALQSGNSQESVTEQDSKDSTYSLSSTLTLSKADYEKHKVYACEVTHQGLSSPVTKSFNRGEC
B5: #19 (bispecific antibody, human IgG1, kappa, L234A L235A)
heavy chain: DVQLVESGGGVVRPGESLRLSCTASGFTFDSYGMSWVRQAPGKGLEWVSSINVGDNTYYADSVRGRFIISRDSSRNTLYLQMNSLTAEDTAVYYCANWNSFFDYWGLGTLVTVSSASTKGPSVFPLAPSSKSTSGGTAALGCLVKDYFPEPVTVSWNSGALTSGVHTFPAVLQSSGLYSLSSVVTVPSSSLGTQTYICNVNHKPSNTKVDKKVEPKSCDKTHTCPPCPAPEAAGGPSVFLFPPKPKDTLMISRTPEVTCVVVDVSHEDPEVKFNWYVDGVEVHNAKTKPREEQYNSTYRVVSVLTVLHQDWLNGKEYKCKVSNKALGAPIEKTISKAKGQPREPQVYTLPPSREEMTKNQVSLTCLVKGFYPSDIAVEWESNGQPENNYKTTPPVLDSDGSFFLYSKLTVDKSRWQQGNVFSCSVMHEALHNHYTQKSLSLSPGKGGGGSGGGGSGGGGSGGGGSDIQLTQSPSSLSASVGDRVTITCSASQDISNYLNWYQQKPGKAPKVLIYFTSSLHSGVPSRFSGSGSGTDFTLTISSLQPEDFATYYCQQYSTVPWTFGQGTKVEIKRTVAAPSVFIFPPSDEQLKSGTASVVCLLNNFYPREAKVQWKVDNALQSGNSQESVTEQDSKDSTYSLSSTLTLSKADYEKHKVYACEVTHQGLSSPVTKSFNRGECGGGGSGGGGSGGGGSGGGGSGGGGSGGGGSGGGGSGGGGSGGGGSGGGGSEVQLVESGGGLVQPGGSLRLSCAASGYDFTHYGMNWVRQAPGKGLEWVGWINTYTGEPTYAADFKRRFTFSLDTSKSTAYLQMNSLRAEDTAVYYCAKYPYYYGTSHWYFDVWGQGTLVTVSSASTKGPSVFPLAPSSKSTSGGTAALGCLVKDYFPEPVTVSWNSGALTSGVHTFPAVLQSSGLYSLSSVVTVPSSSLGTQTYICNVNHKPSNTKVDKKVEPKSCDKTHL
light chain (kappa): EIVLTQSPGTLSLSPGEIATLSCRASQNVRSDLAWYQQKPGQAPRLLIYDASNRATGIPDRFSGSGSGTDFTLTISSLQSEDFAVYYCQQYSNWPPLTFGGGTKVEIKRTVAAPSVFIFPPSDEQLKSGTASVVCLLNNFYPREAKVQWKVDNALQSGNSQESVTEQDSKDSTYSLSSTLTLSKADYEKHKVYACEVTHQGLSSPVTKSFNRGEC

The target in this test is human Tie2 (human, UniProt Q02763 23-1124). Briefly: cell-based or functional assay.
Chain of UniProt Q02763 (Q02763 23-1124): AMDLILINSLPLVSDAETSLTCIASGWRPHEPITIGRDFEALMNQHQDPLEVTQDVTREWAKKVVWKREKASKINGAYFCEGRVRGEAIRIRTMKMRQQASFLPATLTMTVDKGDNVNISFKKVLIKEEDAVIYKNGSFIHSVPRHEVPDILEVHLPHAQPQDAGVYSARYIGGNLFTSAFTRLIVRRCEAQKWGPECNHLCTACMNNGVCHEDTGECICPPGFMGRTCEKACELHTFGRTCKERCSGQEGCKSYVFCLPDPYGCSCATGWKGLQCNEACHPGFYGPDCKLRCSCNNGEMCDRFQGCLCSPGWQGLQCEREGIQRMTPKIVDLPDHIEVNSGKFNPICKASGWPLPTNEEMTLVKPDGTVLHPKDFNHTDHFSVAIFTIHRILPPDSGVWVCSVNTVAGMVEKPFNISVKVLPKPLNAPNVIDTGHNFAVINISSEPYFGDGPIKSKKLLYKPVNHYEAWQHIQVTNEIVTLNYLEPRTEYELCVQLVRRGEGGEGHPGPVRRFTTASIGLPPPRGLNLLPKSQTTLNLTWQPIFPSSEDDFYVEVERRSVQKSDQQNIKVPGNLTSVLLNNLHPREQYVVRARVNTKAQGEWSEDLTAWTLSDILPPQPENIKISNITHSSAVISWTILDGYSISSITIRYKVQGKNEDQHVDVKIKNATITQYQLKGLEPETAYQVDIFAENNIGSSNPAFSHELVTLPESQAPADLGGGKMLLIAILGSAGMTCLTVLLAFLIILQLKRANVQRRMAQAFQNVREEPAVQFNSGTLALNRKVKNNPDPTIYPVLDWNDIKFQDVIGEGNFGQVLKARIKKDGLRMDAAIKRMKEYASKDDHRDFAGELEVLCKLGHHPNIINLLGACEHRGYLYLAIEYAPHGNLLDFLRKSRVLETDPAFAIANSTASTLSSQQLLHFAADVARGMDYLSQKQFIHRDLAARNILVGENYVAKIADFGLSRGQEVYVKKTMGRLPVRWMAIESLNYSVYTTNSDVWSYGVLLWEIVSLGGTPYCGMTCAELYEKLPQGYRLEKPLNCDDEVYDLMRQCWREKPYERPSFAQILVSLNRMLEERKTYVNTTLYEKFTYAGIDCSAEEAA
Regarding B1, the “EC50, pTie2 in HUVEC (in vitro potency; the sheet's head prints no unit, EC50 in nM per legend paragraph 17)” value was found to be 7.06 nM. Turning to B2, the “EC50, pTie2 in HUVEC (in vitro potency; the sheet's head prints no unit, EC50 in nM per legend paragraph 17)” value was determined as 4.73 nM.

As to B3, the “EC50, pTie2 in HUVEC (in vitro potency; the sheet's head prints no unit, EC50 in nM per legend paragraph 17)” value came out at 5.03 nM. Take B4: the “EC50, pTie2 in HUVEC (in vitro potency; the sheet's head prints no unit, EC50 in nM per legend paragraph 17)” value is 5.86 nM.

In the case of B5, the “EC50, pTie2 in HUVEC (in vitro potency; the sheet's head prints no unit, EC50 in nM per legend paragraph 17)” value worked out at 6.37 nM.
